Results reported in a collection of fitness landscapes (doi:10.1016/j.celrep.2020.107928).
Whole data set: some 81,000 sequences, median “one-hybrid fitness for binding NBS DNA” near -0.1, cut for the highest 2% near 0.36. This is one part of the list.

B1: Caulobacter ParB omega fusion; a variant is named by its letters at X, in order, B8GW30 (parent)
chain: MESVVVGEPGMSEGRRGLGRGLSALLGEVDAAPAQAPGEQLGGSREAPIEILQRNPDQPRRTFREEDLEDLSNSIREKGVLQPILVRPSPDTAGEYQIVAGERAWRAAQRAGLKTVPIMVRELDDLAVLEIGIIENVQRADLNVLEEALSYKVLMEKFERTQENIAQTIGKSXSHVANXMRLLXLPDEVQSYLVSGELTAXHARAIAAAADPVALAKQIIEGGLSVRETEALARKAPNLSAGKSKGGRPPRVKDTDTQALESDLSSVLGLDVSIDHRGSTGTLTITYATLEQLDDLCNRLTRGI

Variants of: B1
Assay: one-hybrid fitness for binding NBS DNA (the Noc-binding site; scaled: cognate 1, non-cognate 0); higher = stronger binding
Conditions: with NBS DNA site
How it was run: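 Fitness is the rescaled log change in variant-to-wild-type read ratio, measured by Illumina sequencing of plasmids before and after bacterial one-hybrid selection. The scale puts cognate at 1 and non-cognate at 0. Selection of Caulobacter ParB libraries, four specificity codons randomised, took place in E. coli USO with a HIS3 reporter, site 19 bp from the promoter, over 48 hours at 37°C on M9-minus-histidine with 0.1 mM IPTG and 5 mM 3-AT.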

one-hybrid fitness for binding NBS DNA, 0.208:
TRKK

one-hybrid fitness for binding NBS DNA, 0.439:
QRNQ

one-hybrid fitness for binding NBS DNA, 0.26:
MSHC

one-hybrid fitness for binding NBS DNA, 0.211:
SQTI

one-hybrid fitness for binding NBS DNA, 0.221:
RLWS

one-hybrid fitness for binding NBS DNA, 0.584:
QTFR

one-hybrid fitness for binding NBS DNA, 0.231:
PRRT

one-hybrid fitness for binding NBS DNA, 0.239:
RRGQ

one-hybrid fitness for binding NBS DNA, 0.302:
RRQC

one-hybrid fitness for binding NBS DNA, 0.207:
TRFT

one-hybrid fitness for binding NBS DNA, ≤ 0.2:
GAGP
MGMC
LDMT
APPT
DHSC
QKGM
TVHA
INHA
DRVM
SPSA
TTFH
PKMG
HSRG
PQGC
GFSC
VEMC
LQLM
ANLT
MDMC
GSLP
QLMC
VHYA
TQPG
SCNL
PHHH
NWTY
CWPV
PRFA
DMKC
LQKN
YVRS
QAGH
TGTS
EWRR
LSAT
HTTL
RHGP
INCT
YGMC
GVEH
RFDD
SHPT
KGML
CKWR
TEPD
VYAC
ITTL
MVIS
PPPQ
AKCR
GALA
PTKF
PGIV
QWRA
FLAM
CFQI
SRDF
VWCR
AAHY
IRWS
WIIL
TSEK
SWWG
KNKG
CNHL
YLQI
RKMI
CDKV
CLKV
GLDF
EESS
YKWG
NKCC
NYSC
TVKM
ECNT
NRPS
KADR
MLYT
VVRR
LACT
CRTY
TPMM
PRIN
YSGW
FRES
WLIS
RLIN
QFGM
EVHG
DMEF
CYPV
ESQN
ANKE
WREF
RFPE
WDRY
MSWG
YAIG
QATD
GAEL
DAFG
TTKH
PYPC
PCEG
SHGF
RAAM
SSAP
KTTG
APFL
MRSE
KGED
TREN
VTCR
SALN
QKLN
VDPS
LDSY
YGPG
PCVG
KSYT
NNAD
RPTF
WRTG
PPWC
ALPQ
TTGH
EISG
FAVG
PHTD
CQFS
SHGD
DRQA
SNQG
SAPL
RVSY
NCIR
QLDA
TNVT
HTTI
KYPT
SNYE
FLQL
PRRF
MAHR
KESG
VTLV
ARSG
RMKD
VSYV
SISH
YRSG
SKRD
VHSP
GQAM
TCQV
RFPK
ENPV
VYCG
RVVH
WHFV
SPRE
TWRL
PTNE
MIMW
AVGG
VCIR
QGGM
ECAF
AQNS
HVSL
AGQC
NLTW
WYSD
NSEG
RNWS
NIDS
VGNN
IFQM
PTQY
KTNM
CRSR
PGQS
GMHE
NRHK
GLVM
RDNH
APNE
TATW
KYYR
HWQL
SVSW
EFEL
YFMC
WQDS
SGCF
RDDN
MRIG
MAPD
DEES
VTLW
CIWV
FKLA
QSAY
LGST
WCWS
QKIL
VNQA
VYGT
ITNG
ACDG
GHFS
THGG
VHAY
SDRG
GLDG
QATF
WLPE
GCMV
ICSE
CMVE
HHCR
SAQN
AGSV
AETT
CRNS
RWKN
ITSC
PIAK
CQST
RDLS
DCPE
NLSY
HYLG
LRRV
RQTA
HPWC
WAPC
GEVG
PHMS
HEMS
THKT
HWKT
FQIC
TDEN
YDSV
RDTG
KTWT
PTMP
YHYT
DQAA
VRIT
SGFG
GICR
DTGS
MNML
AYRA
ATGF
TMDG
NLVA
QMDI
MRNW
CEES
FWPV
RSQA
RIAC
LRNN
HMDC
RSCY
VLRE
KCSC
TVYP
TWLF
GNRG
HTPA
NTSS
PKRV
DNGY
CDGR
DVII
RSCE
ITQR
QPQC
LASM
GYSL
SAKG
LHDS
NPNW

one-hybrid fitness for binding NBS DNA, 0.811:
QTRS

one-hybrid fitness for binding NBS DNA, 0.466:
RAGS

one-hybrid fitness for binding NBS DNA, 0.264:
QQTH

one-hybrid fitness for binding NBS DNA, 0.532:
RIHT

one-hybrid fitness for binding NBS DNA, 0.386:
QSCT

one-hybrid fitness for binding NBS DNA, 0.515:
RCAT

one-hybrid fitness for binding NBS DNA, 0.283:
LTRR

one-hybrid fitness for binding NBS DNA, 0.586:
RCNR
